The densities may have been worked out from excess volumes.
Assay: xn = mol fraction of the nth substance listed
Conditions: 101.3 kPa

CCCC[n+]1ccccc1.F[B-](F)(F)F + O
mass density [kg/m3]
Conditions	x2 = 0	x2 = 0.11	x2 = 0.263	x2 = 0.391	x2 = 0.414	x2 = 0.549	x2 = 0.637	x2 = 0.724	x2 = 0.856
283.15 K	1224	1219.6	–	1206.2	1204.7	1194.4	–	–	1135.8
288.15 K	1220.4	–	1209.5	–	1201.3	1190.8	–	1168	1132.4
293.15 K	–	1212.7	–	–	1197.6	1187.1	1177.6	1164.2	1128.9
298.15 K	1213.4	1209.2	1202.5	1195.5	1194.1	1183.5	1173.9	–	1125.4
303.15 K	–	–	1199	–	1190.5	–	1170.3	1156.8	1121.9
308.15 K	1206.6	1202.4	1195.5	1188.4	1186.9	1176.3	1166.6	1153.1	1118.3
313.15 K	1203.2	1198.9	–	–	1183.4	–	1162.9	–	1114.7
318.15 K	1199.8	1195.5	1188.5	1181.4	1179.9	1169.2	1159.3	1145.9	1111
323.15 K	1196.4	1192.1	1185.2	1177.9	1176.4	1165.4	1155.6	1142	–
328.15 K	1193	–	1181.6	1174.3	1172.9	1161.8	1152	–	1103.6
333.15 K	1189.6	1185.3	1178.3	1171	–	–	1148.3	1134.4	1099.9
338.15 K	1186.3	1181.9	1174.8	1167.5	1165.9	1154.7	–	1130.9	1096.1
343.15 K	1182.9	–	–	–	1162.4	1151.2	1141.1	1127.1	1092.3
353.15 K	1176	–	–	–	–	–	–	–	–

CCCCCCCC[n+]1ccccc1.F[B-](F)(F)F + O
mass density [kg/m3]
Conditions	x2 = 0	x2 = 0.1	x2 = 0.184	x2 = 0.324	x2 = 0.477	x2 = 0.562	x2 = 0.67	x2 = 0.758	x2 = 0.783
283.15 K	1123.4	1122.2	1120.5	1117.2	1113.1	1110.3	1105.5	1099.1	1096.6
288.15 K	–	–	–	–	–	1106.8	–	–	1093.6
293.15 K	1116.2	–	–	–	1106	1103.1	1098.4	1092.4	1089.9
298.15 K	1112.7	1111.5	1109.9	1106.7	1102.5	1099.6	–	–	1086
303.15 K	1109.2	1107.9	1106.3	1103.2	1099	1096.2	1091.3	1085	1082.4
308.15 K	–	1104.4	1102.9	1099.8	1095.5	1092.4	1087.6	1081.6	–
313.15 K	1102.2	1100.9	1099.4	1096.1	1091.8	–	–	1077.8	1075.6
318.15 K	–	1097.4	1095.9	–	1088.1	1085.1	1080.5	1075	1072.8
323.15 K	1095.4	1094	1092.4	–	1084.7	1081.7	1077.1	1071.3	1069.3
328.15 K	1091.9	–	–	1085.7	1081.3	1078.3	1073.5	–	1065.2
333.15 K	–	–	–	1082.2	1077.6	1074.3	1069.3	–	1061.3
338.15 K	1085.1	1083.5	1082	1078.8	1074.1	1070.8	–	1060	1057.8
343.15 K	1081.6	1080.1	1078.5	–	1061.4	1067.4	–	1056.4	1054.1
348.15 K	–	1076.7	1075.1	1071.9	–	1064.2	1058.8	1052.8	1050.3
353.15 K	1074.9	–	–	–	–	–	–	–	–

From a compilation of properties of binary mixtures (doi:10.1016/j.jct.2008.09.001)
